# Some of the results follow.
# Legend:
# Experiment in all cases: glycan array binding signal (z-score within array); higher = stronger binding
# Conditions in all cases: glycan notation: IUPAC condensed, linker removed
# Glc(b1-4)Glc = biological target: Glc(b1-4)Glc
# Method in brief: (§1)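 Columns mapping to the same glycan were averaged after glycan names were converted to IUPAC-condensed notation. The data come from 3228 arrays in the Consortium for Functional Glycomics database, limited to those with an available protein sequence. Binding is reported as a within-array Z-score averaged across arrays of one protein sequence and across linkers.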
# Glc(b1-6)Glc = biological target: Glc(b1-6)Glc
# Method in brief: as §1
# GlcA(b1-3)Gal = biological target: GlcA(b1-3)Gal
# Method in brief: as §1
# GlcA(b1-3)GlcNAc = biological target: GlcA(b1-3)GlcNAc
# Method in brief: as §1
# GlcA(b1-6)Gal = biological target: GlcA(b1-6)Gal
# Method in brief: as §1
# [1] = biological target: GlcA3S(b1-3)Gal(b1-4)GlcNAc(b1-2)Man
# Method in brief: as §1
# [2] = biological target: GlcA3S(b1-3)Gal(b1-4)GlcNAc(b1-3)Gal(b1-4)Glc
# Method in brief: as §1
# [3] = biological target: GlcNAc(a1-3)Gal(b1-4)GlcNAc
# Method in brief: as §1
# [4] = biological target: GlcNAc(a1-4)Gal(b1-3)GlcNAc
# Method in brief: as §1
# [5] = biological target: GlcNAc(a1-4)Gal(b1-4)GalNAc
# Method in brief: as §1
# [6] = biological target: GlcNAc(a1-4)Gal(b1-4)GlcNAc
# Method in brief: as §1
# [7] = biological target: GlcNAc(a1-4)Gal(b1-4)GlcNAc(b1-3)Gal(b1-4)Glc
# Method in brief: as §1
# [8] = biological target: GlcNAc(a1-4)Gal(b1-4)GlcNAc(b1-3)Gal(b1-4)GlcNAc
# Method in brief: as §1
# [9] = biological target: GlcNAc(a1-4)Gal(b1-4)GlcNAc(b1-3)Gal(b1-4)GlcNAc(b1-3)Gal(b1-4)GlcNAc
# Method in brief: as §1
# [10] = biological target: GlcNAc(a1-4)Gal(b1-4)GlcNAc(b1-3)Gal(b1-4)[Fuc(a1-3)]GlcNAc(b1-3)Gal(b1-4)[Fuc(a1-3)]GlcNAc
# Method in brief: as §1
# [11] = biological target: GlcNAc(a1-6)Gal(b1-4)GlcNAc
# Method in brief: as §1
# [12] = biological target: GlcNAc(b1-2)Gal(b1-3)GalNAc
# Method in brief: as §1
# [13] = biological target: GlcNAc(b1-2)Man(a1-3)[GlcNAc(b1-2)Man(a1-6)]Man(b1-4)GlcNAc(b1-4)GlcNAc
# Method in brief: as §1
# [14] = biological target: GlcNAc(b1-2)Man(a1-3)[GlcNAc(b1-2)Man(a1-6)]Man(b1-4)GlcNAc(b1-4)[Fuc(a1-6)]GlcNAc
# Method in brief: as §1
# [15] = biological target: GlcNAc(b1-2)Man(a1-3)[GlcNAc(b1-4)][GlcNAc(b1-2)Man(a1-6)]Man(b1-4)GlcNAc(b1-4)GlcNAc
# Method in brief: as §1
# [16] = biological target: GlcNAc(b1-2)Man(a1-3)[GlcNAc(b1-4)][GlcNAc(b1-2)Man(a1-6)]Man(b1-4)GlcNAc(b1-4)[Fuc(a1-6)]GlcNAc
# Method in brief: as §1
# [17] = biological target: GlcNAc(b1-2)[GlcNAc(b1-4)]Man(a1-3)[GlcNAc(b1-2)Man(a1-6)]Man(b1-4)GlcNAc(b1-4)GlcNAc
# Method in brief: as §1
# [18] = biological target: GlcNAc(b1-2)[GlcNAc(b1-4)]Man(a1-3)[GlcNAc(b1-4)][GlcNAc(b1-2)Man(a1-6)]Man(b1-4)GlcNAc(b1-4)GlcNAc
# Method in brief: as §1
# [19] = biological target: GlcNAc(b1-2)[GlcNAc(b1-4)]Man(a1-3)[GlcNAc(b1-4)][GlcNAc(b1-2)[GlcNAc(b1-6)]Man(a1-6)]Man(b1-4)GlcNAc(b1-4)GlcNAc
# Method in brief: as §1
# [20] = biological target: GlcNAc(b1-2)[GlcNAc(b1-4)]Man(a1-3)[GlcNAc(b1-4)][GlcNAc(b1-2)[GlcNAc(b1-6)]Man(a1-6)]Man(b1-4)GlcNAc(b1-4)[Fuc(a1-6)]GlcNAc
# Method in brief: as §1
# [21] = biological target: GlcNAc(b1-2)[GlcNAc(b1-6)]Man(a1-6)[GlcNAc(b1-2)Man(a1-3)]Man(b1-4)GlcNAc(b1-4)GlcNAc
# Method in brief: as §1
# [22] = biological target: GlcNAc(b1-2)[GlcNAc(b1-6)]Man(a1-6)[GlcNAc(b1-2)Man(a1-3)]Man(b1-4)GlcNAc(b1-4)[Fuc(a1-6)]GlcNAc
# Method in brief: as §1
# [23] = biological target: GlcNAc(b1-2)[GlcNAc(b1-6)]Man(a1-6)[GlcNAc(b1-4)][GlcNAc(b1-2)Man(a1-3)]Man(b1-4)GlcNAc(b1-4)GlcNAc
# Method in brief: as §1
# GlcNAc(b1-3)Fuc = biological target: GlcNAc(b1-3)Fuc
# Method in brief: as §1
# GlcNAc(b1-3)Gal = biological target: GlcNAc(b1-3)Gal
# Method in brief: as §1
# [24] = biological target: GlcNAc(b1-3)Gal(b1-3)GalNAc
# Method in brief: as §1
# GlcNAc(b1-3)Gal(b1-4)Glc = biological target: GlcNAc(b1-3)Gal(b1-4)Glc
# Method in brief: as §1
# [25] = biological target: GlcNAc(b1-3)Gal(b1-4)GlcNAc
# Method in brief: as §1
# [26] = biological target: GlcNAc(b1-3)Gal(b1-4)GlcNAc(b1-2)Man(a1-3)[GlcNAc(b1-3)Gal(b1-4)GlcNAc(b1-2)Man(a1-6)]Man(b1-4)GlcNAc(b1-4)GlcNAc
# Method in brief: as §1
# [27] = biological target: GlcNAc(b1-3)Gal(b1-4)GlcNAc(b1-2)Man(a1-3)[GlcNAc(b1-3)Gal(b1-4)GlcNAc(b1-2)Man(a1-6)]Man(b1-4)GlcNAc(b1-4)[Fuc(a1-6)]GlcNAc
# Method in brief: as §1
# [28] = biological target: GlcNAc(b1-3)Gal(b1-4)GlcNAc(b1-2)[GlcNAc(b1-3)Gal(b1-4)GlcNAc(b1-6)]Man(a1-6)[GlcNAc(b1-3)Gal(b1-4)GlcNAc(b1-2)Man(a1-3)]Man(b1-4)GlcNAc(b1-4)GlcNAc
# Method in brief: as §1
# [29] = biological target: GlcNAc(b1-3)Gal(b1-4)GlcNAc(b1-3)Gal(b1-4)GlcNAc
# Method in brief: as §1
binder,measurement,setting,value
"Siglec-9 (Homo sapiens), Q9Y336 (protein) MLLLLLPLLWGRERAEGQTSKLLTMQSSVTVQEGLCVHVPCSFSYPSHGWIYPGPVVHGYWFREGANTDQDAPVATNNPARAVWEETRDRFHLLGDPHTKNCTLSIRDARRSDAGRYFFRMEKGSIKWNYKHHRLSVNVTALTHRPNILIPGTLESGCPQNLTCSVPWACEQGTPPMISWIGTSVSPLDPSTTRSSVLTLIPQPQDHGTSLTCQVTFPGASVTTNKTVHLNVSYPPQNLTMTVFQGDGTVSTVLGNGSSLSLPEGQSLRLVCAVDAVDSNPPARLSLSWRGLTLCPSQPSNPGVLELPWVHLRDAAEFTCRAQNPLGSQQVYLNVSLQSKATSGVTQGVVGGAGATALVFLSFCVIFVVVRSCRKKSARPAAGVGDTGIEDANAVRGSASQGPLTEPWAEDSPPDQPPPASARSSVGEGELQYASLSFQMVKPWDSRGQEATDTEYSEIKIHR",glycan array binding signal (z-score),Glc(b1-4)Glc,-0.233
same,glycan array binding signal (z-score),Glc(b1-6)Glc,-0.503
same,glycan array binding signal (z-score),GlcA(b1-3)Gal,-0.202
same,glycan array binding signal (z-score),GlcA(b1-3)GlcNAc,0.06
same,glycan array binding signal (z-score),GlcA(b1-6)Gal,-0.199
same,glycan array binding signal (z-score),[1],-0.029
same,glycan array binding signal (z-score),[2],0.196
same,glycan array binding signal (z-score),[3],-0.228
same,glycan array binding signal (z-score),[4],-0.275
same,glycan array binding signal (z-score),[5],-0.395
same,glycan array binding signal (z-score),[6],-0.269
same,glycan array binding signal (z-score),[7],-0.03
same,glycan array binding signal (z-score),[8],-0.343
same,glycan array binding signal (z-score),[9],-0.352
same,glycan array binding signal (z-score),[10],0.018
same,glycan array binding signal (z-score),[11],-0.324
same,glycan array binding signal (z-score),[12],-0.132
same,glycan array binding signal (z-score),[13],-0.142
same,glycan array binding signal (z-score),[14],0.025
same,glycan array binding signal (z-score),[15],0.025
same,glycan array binding signal (z-score),[16],-0.288
same,glycan array binding signal (z-score),[17],-0.181
same,glycan array binding signal (z-score),[18],0.232
same,glycan array binding signal (z-score),[19],-0.199
same,glycan array binding signal (z-score),[20],-0.152
same,glycan array binding signal (z-score),[21],-0.167
same,glycan array binding signal (z-score),[22],-0.14
same,glycan array binding signal (z-score),[23],-0.254
same,glycan array binding signal (z-score),GlcNAc(b1-3)Fuc,-0.068
same,glycan array binding signal (z-score),GlcNAc(b1-3)Gal,-0.115
same,glycan array binding signal (z-score),[24],-0.1
same,glycan array binding signal (z-score),GlcNAc(b1-3)Gal(b1-4)Glc,-0.137
same,glycan array binding signal (z-score),[25],-0.136
same,glycan array binding signal (z-score),[26],-0.042
same,glycan array binding signal (z-score),[27],-0.093
same,glycan array binding signal (z-score),[28],-0.437
same,glycan array binding signal (z-score),[29],-0.137

# From the supplement of paper PMC8728848
